Assay results taken from patent US20250122306A1 (SUTRO BIOPHARMA, published 2025).

T1: cynomolgus tissue factor (cynomolgus TF, Sino Bio #90885-C08H) (cynomolgus monkey, UniProt P13726 33-251 (human entry))
T1 construct: bought recombinant antigen; also called cyno TF
T1 chain: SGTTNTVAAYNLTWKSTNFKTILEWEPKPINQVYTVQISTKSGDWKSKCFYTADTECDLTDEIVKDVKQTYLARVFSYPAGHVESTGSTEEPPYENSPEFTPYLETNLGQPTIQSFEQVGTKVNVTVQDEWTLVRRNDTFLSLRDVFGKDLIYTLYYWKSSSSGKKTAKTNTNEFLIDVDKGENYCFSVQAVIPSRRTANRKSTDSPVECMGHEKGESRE


What was measured:
[1] = target: tissue factor reagent of the Tissue Factor Activity Assay Kit (Abcam #ab108906) (UniProt P13726 33-295, limits assumed); assay: cell-based or functional assay
[2] = target: T2, human tissue factor on cells (human, UniProt P13726 33-295); assay: flow cytometry on BxPC3 cells (TF positive), one-site fit of MFI
T2 construct: cell-surface TF, transfected (HEK293T-humanTF) or endogenous (tumour lines, keratinocytes); the cell line is named under assay; also called HEK293T-humanTF; TF on BxPC3, primary human keratinocytes, NCI-H292, HCC1954, NCI-H1975
Text: HEK293T, BxPC3 cells (TF positive) and NCI-H1703 (TF negative) cells were obtained from ATCC (American Type Culture Collection) and maintained in DMEM: F12 (1:1), high glucose (Corning) supplemented with 10% heat-inactivated fetal bovine serum (ThermoScientific), 1× Penicillin/Streptomycin (Corning) and 2 mmol glutamax (Thermo Fisher Scientific). To generate cells that stably expressing human tissue factor (HEK293T-humanTF) or cynomolgus tissue factor (HEK293T-cynoTF), HEK293T cells were transfected with plasmid vectors that contain the corresponding protein sequence and stable clones were selected with puromycin.
For a fluorescence-activated cell sorting (FACS) cell-binding assay, cells were collected by Accutase and counted by the Vi-CELL Cell Viability Analyzersharvested and, then re-suspended in FACS buffer (DPBS buffer supplemented with 1% bovine serum albumin). A total of 200,000 cells in 100 μL were incubated on ice with 100 μL of anti-TF antibodies in each well of a 96-well plate. Cells were washed twice with ice-cold FACS buffer and then incubated on ice for 60 mins with 5 μg/mL Alexa 647-labeled donkey anti-human Fc antibody (Jackson ImmunoResearch). Unstained cells and cells stained with secondary antibody alone were used as controls. Cells were washed twice with FACS buffer and analyzed using a BD FACS Canto system. Geometric mean fluorescence intensities (MFI) were fitted using non-linear regression analysis with one site specific binding equation on GraphPad Prism (GraphPad Software; La Jolla, CA).

[3] = target: T3, human tissue factor (human TF, Lake Pharma) (human, UniProt P13726 33-251, limits assumed); assay: Biacore SPR, single-point off-rate (100 nM antigen), scFvFc captured on anti-Fc
T3 construct: bought recombinant antigen; also called CD142
Method: (§1) Anti-Fc polyclonal antibodies were immobilized onto a CM4 chip (Cytiva #BR100534) using amine coupling chemistry (Human Antibody Capture Kit, Cytiva #BR100839). The immobilization steps were carried out at a flow rate of 25 μL/min in 1×HBS-EP+buffer (Cytiva #BR100669). The sensor surfaces were activated for 7 min with a mixture of N-hydroxysuccinimide (NHS, 0.05 M) and 1-ethyl-3-(3-dimethylaminopropyl)-carbodiimide (EDC, 0.2 M). The anti-Fc polyclonal antibodies were injected over all 4 flow cells at a concentration of 25 μg/mL in 10 mM sodium acetate, pH 4.5, for 7 min. Ethanolamine (1 M, pH 8.5) was injected for 7 min to block any remaining activated groups.
(§2) Off-rate and kinetic binding experiments were performed at 25° C. using 1×HBS-EP+buffer. Antibodies were injected over the anti-Fc surface at a concentration of 3 μg/mL for 12 seconds at a flow rate of 10 μL/min on flow cells 2, 3 and 4, followed by a buffer wash for 30 seconds at the same flow rate. Single point off-rate analysis was carried out using an antigen concentration of 100 nM. […] After capturing ligand (antibody) on the anti-Fc surface, the analyte (human TF, Lake Pharma; cynomolgus TF, Sino Bio #90885-C08H; mouse TF, R&D Systems #3178-PA) was bound for 180 seconds, followed by a 420 second dissociation phase at a flow rate of […]. Between each ligand capture and analyte binding cycle, regeneration was carried out using 2 injections of 10 mM glycine pH 2.0 for 30 seconds at 30 μL/min, followed by a 30 second buffer wash step.

[4] = target: T1, cynomolgus tissue factor (cynomolgus …); assay: as above
Method: as §1, §2

FX conversion (% inhibition), 1000 nM antibody [1] [%] | Bmax (MFI) [2] [MFI] | Kd [2] [nM] | koff [3] [s⁻¹] | koff [4] [s⁻¹] | Binder
2.29 | 34900 | 0.058 | 0.000604 | 0.00141 | SRP2842-G04 scFvFc (Fc fusion, rabbit scFv-Fc with C-terminal Flag and His6 tags; His6 follows; also called 2842-G04 (scFvFc parent)) MSKNKQSVEESEGGLFKPTDTLTLTCTVSGFSLSYYGVSWVRQAPGNGLEWIGTIDSSGRTYYASWANGRFTISNDNAPNTVSLQVNSLAAADTATYFCARDFYGWNSGALDIWGPGTLVTVSSGGGGSGGGGSGGGGSELDLTQTASPVSAAVGGTVTINCQASQSVYSNKYLSWYQQKPGQPPKLLIYKASTLASGVPSRFSGSGFGTEFTLTISDVQCDDAATYYCAAAYSDDSDTAFGGGTKVVVEAAAGSDQ[human IgG1 Fc with changes not given here]GSGDYKDDDDKGSG
2.54 | 39000 | 0.089 | 0.000303 | 0.00127 | SRP2842-B01 scFvFc (Fc fusion, rabbit scFv-Fc with C-terminal Flag and His6 tags; His6 follows; also called 2842-B01 (scFvFc parent)) MSKNKQSVEESEGGLFKPADTLTLTCTASGFSISSYDMSWVRQAPGNGLEWIGIIGSNGRTYYPNWAKSRSTITRNTNENTVTLKMTSLTAADTATYFCARGLYDGTGNIWGPGTLVTVSSGGGGSGGGGSGGGGSELVMTQTPSPVSAAVGSTVTISCQASQSVYGNNWLSWFQQKPGQPPKLLIYGASKLASGVSSRFKGSGSGTQFTLTISGVQCDDAATYYCQGTYYSGDWYFAFGGGTELEILAAAGSDQ[human IgG1 Fc with changes not given here]GSGDYKDDDDKGSG
